According to the RNAGym collection of RNA variant scans (doi:10.1093/nar/gkz1192):
The source gives no read counts; variants with many changes may rest on few reads.

B1: CPEB3 Ribozyme (parent)
chain: UAACAGGGGGCCACAGCAGAAGCGUUCACGUCGCAGCCCCUGUCAGAUUCUGGUGAAUCUGCGAAUUCUGCUGUAUAUCUC

Variants of: B1
Assay: self-cleavage, relative activity (ratio to wild type); higher = more cleavage; in vitro, sequencing
Outline: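 For each CPEB3 ribozyme variant, relative activity is its cleaved/total read fraction divided by the unmutated ribozyme's. Barcoded error-prone PCR libraries were transcribed by T7 RNA polymerase (5 hours, 37°C) and held in DNase I for 15 min before an EDTA stop, with cleavage occurring throughout. Template-switching reverse transcription and Illumina sequencing were used to read the RNAs. A 5-read minimum applied, and results are the mean of three batches.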
With A5U G10A U51C U66A the self-cleavage was 0.11.
Work on A5U G10C A18G U60C U69C yielded a self-cleavage of 0.08.
Variant A5U G10U C29U U51G G53A has a self-cleavage of 0.06.
With A5U G10U U26G U49C G52A U67A the self-cleavage was 0.05.
A5U G16A U31C A45G U49C G61U G70A gave a self-cleavage of 0.01.
With A5U G16A U67A the self-cleavage was 0.19.
With A5U G24A A28G the self-cleavage was 0.27.
In the case of A5U G24A G70A, the self-cleavage is reported as 0.13.
A5U G24C A75U showed a self-cleavage of 0.37.
Variant A5U G24U U31C A45U has a self-cleavage of 0.22.
A5U G30A U41A gave a self-cleavage of 0.2.
A5U G30A U41A A65G U76A showed a self-cleavage of 0.07.
For A5U U25A U26A, the self-cleavage was 0.3.
A5U U25A U26A A35G showed a self-cleavage of 0.42.
A5U U25A U26A A57G gave a self-cleavage of 0.17.
With A5U U25A U60C U76C the self-cleavage was 0.09.
In the case of A5U U25A U69C U74A, the self-cleavage is reported as 0.08.
In the case of A5U U25C A28G, the self-cleavage is reported as 0.35.
Work on A5U U25C A28G C39U U54C U69A U72C yielded a self-cleavage of 0.16.
For A5U U25C C32U U54G U74C, the self-cleavage was 0.29.
Work on A5U U25C C38G U41C U67C yielded a self-cleavage of 0.06.
With A5U U25C C62U the self-cleavage was 0.23.
Work on A5U U25C U31C A35U U72C yielded a self-cleavage of 0.39.
A5U U26A C34G A57G A75G gave a self-cleavage of 0.17.
With A5U U26A C79A the self-cleavage was 1.24.
Work on A5U U26A G42C U54C A64U A75U U80A yielded a self-cleavage of 0.1.
A5U U26A U31C A65G gave a self-cleavage of 0.17.
With A5U U26A U69C the self-cleavage was 0.54.
With A5U U26C A35G U80A the self-cleavage was 1.23.
A5U U26C U51A A56G U66C U76C U80G gave a self-cleavage of 0.16.
A5U U26G C39U U74A gave a self-cleavage of 0.22.
A5U U26G U51C gave a self-cleavage of 0.39.
With A5U U31C A47G U49C A57G U60C A77U the self-cleavage was 0.
Work on A5U U31C C32U yielded a self-cleavage of 0.27.
A5U U31C U48A U49C gave a self-cleavage of 0.5.
Work on A5U U31C U49C G55C A64G yielded a self-cleavage of 0.26.
With A5U U41A A45U U54C U80A the self-cleavage was 0.08.
A5U U41A G52A showed a self-cleavage of 0.66.
A5U U41A U43C A47C G73A gave a self-cleavage of 0.1.
In the case of A5U U41A U54C A56G, the self-cleavage is reported as 0.12.
For A5U U41C U49A A57G A77G, the self-cleavage was 0.44.
Work on A5U U41G U54C yielded a self-cleavage of 0.4.
Work on A5U U43C A45C A47G yielded a self-cleavage of 0.51.
In the case of A5U U43C G53A, the self-cleavage is reported as 0.72.
Variant A5U U43C G63U U74C has a self-cleavage of 1.16.
In the case of A5U U43C U49C, the self-cleavage is reported as 0.22.
With A5U U43C U69A the self-cleavage was 0.35.
A5U U43G U49A U51A gave a self-cleavage of 0.28.
Variant A5U U48C A56G has a self-cleavage of 0.51.
For A5U U48C U51A, the self-cleavage was 0.51.
A5U U49A U58C A64G U78C showed a self-cleavage of 0.1.
With A5U U49A U67G the self-cleavage was 0.23.
A5U U49C A65U gave a self-cleavage of 0.21.
For A5U U51C U66C, the self-cleavage was 0.4.
A5U U54C A56G U72A U78C gave a self-cleavage of 0.57.
For A5U U54C G61C G70C, the self-cleavage was 0.42.
A5U U54C U69C A77G U80A showed a self-cleavage of 1.08.
For A5U U58A U66C A75G, the self-cleavage was 0.15.
A5U U58A U78C gave a self-cleavage of 0.3.
Variant A5U U58C U60C has a self-cleavage of 0.19.
A5U U58C U60C A64G U67C gave a self-cleavage of 0.13.
In the case of A5U U58C U72C, the self-cleavage is reported as 0.72.
Variant A5U U58C U76C U80A has a self-cleavage of 0.43.
For A5U U60A C62U U67C U74C U78C, the self-cleavage was 0.31.
Variant A5U U60C U80A has a self-cleavage of 0.47.
For A5U U72C U78A, the self-cleavage was 1.03.
In the case of G6A A13G A47G U58C U74C A75G, the self-cleavage is reported as 0.11.
G6A A13G C50A A77U gave a self-cleavage of 0.05.
G6A A13G G30A A47G U66C G73A U78C gave a self-cleavage of 0.04.
Work on G6A A13G U25C U43C G46U U48C yielded a self-cleavage of 0.05.
For G6A A13U A15G A21G A28U U72C, the self-cleavage was 0.08.
With G6A A13U A28U A45U A77U the self-cleavage was 0.05.
With G6A A13U A45U U80A the self-cleavage was 0.68.
In the case of G6A A13U U25C U66C, the self-cleavage is reported as 0.11.
Work on G6A A13U U48C A65U G73A yielded a self-cleavage of 0.21.
With G6A A13U U51A the self-cleavage was 0.18.
For G6A A15C A20U A56G U66C U69C U72A, the self-cleavage was 0.05.
G6A A15C C40U A57G gave a self-cleavage of 0.33.
Work on G6A A15C U41A U49C U67A yielded a self-cleavage of 0.05.
With G6A A15G A21G C27G A57G the self-cleavage was 0.07.
With G6A A15G U41C U54C A57C U58C the self-cleavage was 0.23.
For G6A A15G U41G, the self-cleavage was 0.19.
In the case of G6A A15G U43A U69A, the self-cleavage is reported as 0.11.
Variant G6A A15G U69C A77C has a self-cleavage of 0.08.
For G6A A18C U26C U41C U60C, the self-cleavage was 0.06.
Work on G6A A18C U49C A56G U80C yielded a self-cleavage of 0.06.
G6A A18G A21G showed a self-cleavage of 0.07.
In the case of G6A A18G C29U U48A, the self-cleavage is reported as 0.04.
G6A A18G U26A U66C showed a self-cleavage of 0.33.
G6A A18U C32G A56U A65G U74G gave a self-cleavage of 0.03.
G6A A18U U43C showed a self-cleavage of 0.36.
G6A A20G A35C U54A showed a self-cleavage of 0.35.
Work on G6A A20G C23A U76G yielded a self-cleavage of 0.44.
With G6A A20G U26C A45U A64G the self-cleavage was 0.13.
For G6A A20G U78A, the self-cleavage was 0.09.
Variant G6A A20U A21G A47G U58C has a self-cleavage of 0.06.
Work on G6A A20U A21G A77G yielded a self-cleavage of 0.08.
For G6A A20U A21G C40G A77G, the self-cleavage was 0.22.
Variant G6A A21G A35G U43A A56C A77G U80C has a self-cleavage of 0.06.
G6A A21G C27U A45U U66C U69A A75U gave a self-cleavage of 0.03.
Variant G6A A21G G42A U72C has a self-cleavage of 0.32.
In the case of G6A A21G U25A U26C U31C A35U A64G, the self-cleavage is reported as 0.04.
For G6A A21G U26A A28G U41A A56U A64G, the self-cleavage was 0.39.
With G6A A21G U54C the self-cleavage was 0.1.
Work on G6A A28C A35U U51C A64G A65U A75G yielded a self-cleavage of 0.04.
For G6A A28C C50A A64G, the self-cleavage was 0.14.
In the case of G6A A28G A35G U54C, the self-cleavage is reported as 0.35.
With G6A A28G A57U the self-cleavage was 0.06.
Variant G6A A28G A65G A75G U80C has a self-cleavage of 0.04.
With G6A A28G G30U U48C U74C the self-cleavage was 0.14.
In the case of G6A A28G U54C, the self-cleavage is reported as 0.16.
G6A A28G U66C U67C gave a self-cleavage of 0.17.
Work on G6A A28U C37U U51A yielded a self-cleavage of 0.07.
G6A A28U C71U showed a self-cleavage of 0.24.
In the case of G6A A28U G52A, the self-cleavage is reported as 0.13.
In the case of G6A A35C A45G U48C A57U A65G, the self-cleavage is reported as 0.1.
In the case of G6A A35G A57G U72C A75U, the self-cleavage is reported as 0.3.
Variant G6A A35G U58C U67A U72A has a self-cleavage of 0.08.
G6A A35U U54C showed a self-cleavage of 0.07.
G6A A45G U60A G63A U80A gave a self-cleavage of 0.06.
G6A A47G U49C A64C U69C showed a self-cleavage of 0.08.
For G6A A47G U67C, the self-cleavage was 0.08.
G6A A56G U72A gave a self-cleavage of 0.17.
With G6A A56U U60A U67C A77G the self-cleavage was 0.05.
With G6A A65G U76C the self-cleavage was 0.05.
G6A C11A A18G U41A U54C showed a self-cleavage of 0.06.
In the case of G6A C11U U41C U69G U76C, the self-cleavage is reported as 0.14.
Variant G6A C12G U41C has a self-cleavage of 0.31.
Work on G6A C17A U41C A64G A75G U76C yielded a self-cleavage of 0.16.
In the case of G6A C27A A35G U60A U80C, the self-cleavage is reported as 0.18.
G6A C27U U48C showed a self-cleavage of 0.4.
For G6A C29U A64G, the self-cleavage was 0.42.
G6A C32A A45G A77U showed a self-cleavage of 0.
With G6A C37U G55A U67A U80A the self-cleavage was 0.15.
Variant G6A C38G U41A A45C U58C U67G has a self-cleavage of 0.29.
Work on G6A C40A U41A yielded a self-cleavage of 0.08.
In the case of G6A G8A A13G U66A U78C, the self-cleavage is reported as 0.08.
In the case of G6A G8A A15U U25C U49C G55C, the self-cleavage is reported as 0.06.
Work on G6A G8A A35G A45G A57C yielded a self-cleavage of 0.06.
Variant G6A G9A A57G U60A has a self-cleavage of 0.05.
G6A G10A C23G U66C showed a self-cleavage of 0.04.
Variant G6A G10A U25C U72A A75U has a self-cleavage of 0.05.
For G6A G10A U31C, the self-cleavage was 0.07.
In the case of G6A G16A U43A, the self-cleavage is reported as 0.14.
G6A G16U A18G U60A gave a self-cleavage of 0.06.
With G6A G24A U43G A45G U69A U78C the self-cleavage was 0.16.
Work on G6A G24A U54C yielded a self-cleavage of 0.18.
In the case of G6A G24A U54G A57G U72C U78A, the self-cleavage is reported as 0.06.
Variant G6A G24U U43A G55U has a self-cleavage of 0.07.
Work on G6A G33A U60C yielded a self-cleavage of 0.07.
In the case of G6A G46A U51A U58C U60A U67A U72C, the self-cleavage is reported as 0.17.
Variant G6A G53A U69G U80A has a self-cleavage of 0.09.
G6A U25A A57G showed a self-cleavage of 0.26.
For G6A U25C C32U U80A, the self-cleavage was 0.31.
G6A U25C U49C gave a self-cleavage of 0.2.
With G6A U25C U54A U66C the self-cleavage was 0.13.
G6A U26A A35G U49A U58C U60A showed a self-cleavage of 0.14.
In the case of G6A U26A A35U U69A U72A, the self-cleavage is reported as 0.05.
Work on G6A U26A U72C U80A yielded a self-cleavage of 0.31.
Variant G6A U26C A35G C37U U48C U51A U72A has a self-cleavage of 0.2.
Variant G6A U26C A45G A77U U78A has a self-cleavage of 0.28.
G6A U26C C50A U54C U72G showed a self-cleavage of 0.2.
For G6A U26C G53A G63U, the self-cleavage was 0.08.
G6A U26C U41C U72G showed a self-cleavage of 0.05.
G6A U26C U48C U54A showed a self-cleavage of 0.06.
For G6A U26C U51C U69A, the self-cleavage was 0.13.
In the case of G6A U26C U72C U80A, the self-cleavage is reported as 0.07.
